Source: PubChem BioAssay (Tox21)
Several values for one entry are separate records, joined by “and”; a condition that tells them apart may be missing. Equal values may be shown once. The shares of active, inactive and inconclusive entries below differ from those in the screen. For part of these data: Potencies beside an inconclusive call are fits to weak or partial responses and may not hold up. A structure can be active in one record and inactive in another. Activity calls are given as the source filed them. Calls follow the shape of the dose curve; as a rule, active = well fitted curve in the direction sought with a large enough effect in the repeat runs; inconclusive = weak or mixed curves; inactive = no such curve, though single readings can be large; an effect the other way counts as inactive or inconclusive.

Tests used:
[1] = Caspase-3/7 induction in HepG2 cells by small molecules, qHTS assay (AID 1346978); also: nearly all actives have a fitted effect of over 15% in size
Summary of the method: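 Wild-type HepG2 cells, 2,000/well, settled 5 hr at 37 C and 5% CO2, then compound-treated for 17 hr; caspase-3/7 activity read by luminescent Caspase-Glo 3/7 after 30 min at room temperature.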

[2] = Caspase-3/7 induction in HepG2 cells by small molecules, qHTS cell viability counter screen (AID 1346981); also: nearly all actives have a fitted effect of over 30% in size
Summary of the method: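 The parent HepG2 line is plated at 2,000 cells per well and rested 5 hr before compound pinning from DMSO stocks. Following a 16-hr treatment at 37 C, a fluorogenic live-cell substrate (CellTiter-Fluor) reports viability after 1 hr.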

[3] = target: Nuclear receptor subfamily 1 group I member 2 (Homo sapiens) (UniProt O75469); test: Human pregnane X receptor (PXR) small molecule agonists, qHTS assay (AID 1346982); also: nearly all actives have a fitted effect of over 35% in size
Summary of the method: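 After plating in 5% charcoal-stripped FBS and a 5 hr rest, PXR-Luc HepG2 cells received compounds in DMSO. Following 24 hr at 37 C, ONE-Glo was added and light output read.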

[4] = Caspase-3/7 induction in CHO-K1 cells by small molecules, qHTS assay (AID 1346980); also: nearly all actives have a fitted effect of over 15% in size
Summary of the method: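 Wild-type CHO-K1 cells exposed to compounds for 17hr at 37 C, 5% CO2. Caspase-3/7 activity then measured by Caspase-Glo 3/7 luminescence after 30min at room temperature.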

[5] = Caspase-3/7 induction in CHO-K1 cells by small molecules, qHTS cell viability counter screen (AID 1346979); also: nearly all actives have a fitted effect of over 35% in size
Summary of the method: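 Following a 5hr settling period, CHO-K1 cells at 1,500 per well received DMSO-dissolved compounds. Cell viability was quantified 16hr later by CellTiter-Fluor fluorescence, measured after 1hr with reagent at 37C.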

[6] = target: Cytochrome P450 2C19 (Homo sapiens) (UniProt P33261); test: Cytochrome P450 Family 2 Subfamily C Member 19 (CYP2C19) small molecule antagonists: luciferase reporter qHTS assay (AID 1671197); also: nearly all actives have a fitted effect of over 65% in size
Summary of the method: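 Enzyme-substrate mix with proluciferin substrate (P450-Glo CYP2C19 system) preincubated with compounds 10 min at room temperature; NADPH regeneration solution added, 37C for 1 h; detection reagent stops reaction, luminescence read after 20 min. Ketoconazole positive control.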

[7] = target: Nuclear receptor subfamily 1 group I member 2 (Homo sapiens) (UniProt O75469); test: CYP3A4 induction through human pregnane X receptor (PXR) by small molecules, qHTS assay (AID 1346984); also: nearly all actives have a fitted effect of over 40% in size
Summary of the method: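 Human PXR activation is tracked via CYP3A4 promoter-luciferase in DPX-2 (HepG2) cells. Compounds treat cells for 24hr at 37C, and luminescence is read after One-Glo.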

[8] = target: Cytochrome P450 2D6 (Homo sapiens) (UniProt P10635); test: Cytochrome P450 Family 2 Subfamily D Member 6 (CYP2D6) small molecule antagonists: luciferase reporter qHTS assay (AID 1671196); also: nearly all actives have a fitted effect of over 50% in size
Summary of the method: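 Quantitative HTS of Tox21 chemicals against CYP2D6 using a luminescent proluciferin substrate. After NADPH addition, 1 h room-temperature reaction; luminescence recorded 20 min post detection reagent.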

[9] = target: Nuclear receptor subfamily 1 group I member 2 (Rattus norvegicus) (UniProt Q9R1A7); test: Rat pregnane X receptor (rPXR) activation by small molecules, qHTS assay (AID 1346983); conditions: rPXR luciferase reporter cells, One-Glo luminescence, 24 h; max activation: stronger effect = higher value; also: nearly all actives have a fitted effect of over 20% in size
Summary of the method: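 Cell-based rPXR activation assay: rPXR cells, 2,000 per well, rested 5hr at 37 C, then exposed to compounds in DMSO for 24 hr at 37 C. Luciferase activity read by One-Glo luminescence after 30 min at room temperature.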

[10] = target: Nuclear receptor subfamily 1 group I member 2 (Homo sapiens) (UniProt O75469); test: Human pregnane X receptor (PXR) activation by small molecules, qHTS assay (AID 1346985); also: nearly all actives have a fitted effect of over 40% in size
Summary of the method: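 DPX-2 cells (HepG2 co-transfected with a PXR response element and a CYP3A4-promoter luciferase construct) were seeded at 2,000 per well, rested 5 hr at 37C, then exposed to DMSO-dissolved compounds for 24 hr. Activation was read as luciferase luminescence.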
Potency is read from the fitted curve at half-maximal effect; tags tell the direction and shape of the fitted curve.

Chain of UniProt P10635 (P10635 whole entry, looked up): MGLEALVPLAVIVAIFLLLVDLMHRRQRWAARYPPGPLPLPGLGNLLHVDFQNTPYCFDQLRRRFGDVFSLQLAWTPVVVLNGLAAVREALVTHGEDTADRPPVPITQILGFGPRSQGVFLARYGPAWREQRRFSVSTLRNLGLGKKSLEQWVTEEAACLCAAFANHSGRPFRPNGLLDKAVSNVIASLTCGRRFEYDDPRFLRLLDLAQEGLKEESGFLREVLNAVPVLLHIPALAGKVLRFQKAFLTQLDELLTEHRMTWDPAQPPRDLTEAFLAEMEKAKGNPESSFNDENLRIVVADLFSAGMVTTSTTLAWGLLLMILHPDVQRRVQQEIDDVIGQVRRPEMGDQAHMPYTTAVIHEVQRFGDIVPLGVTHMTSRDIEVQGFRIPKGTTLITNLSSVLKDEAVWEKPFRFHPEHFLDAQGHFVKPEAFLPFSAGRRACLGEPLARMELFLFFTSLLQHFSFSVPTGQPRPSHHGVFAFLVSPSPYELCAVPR
Chain of UniProt P33261 (P33261 whole entry, looked up): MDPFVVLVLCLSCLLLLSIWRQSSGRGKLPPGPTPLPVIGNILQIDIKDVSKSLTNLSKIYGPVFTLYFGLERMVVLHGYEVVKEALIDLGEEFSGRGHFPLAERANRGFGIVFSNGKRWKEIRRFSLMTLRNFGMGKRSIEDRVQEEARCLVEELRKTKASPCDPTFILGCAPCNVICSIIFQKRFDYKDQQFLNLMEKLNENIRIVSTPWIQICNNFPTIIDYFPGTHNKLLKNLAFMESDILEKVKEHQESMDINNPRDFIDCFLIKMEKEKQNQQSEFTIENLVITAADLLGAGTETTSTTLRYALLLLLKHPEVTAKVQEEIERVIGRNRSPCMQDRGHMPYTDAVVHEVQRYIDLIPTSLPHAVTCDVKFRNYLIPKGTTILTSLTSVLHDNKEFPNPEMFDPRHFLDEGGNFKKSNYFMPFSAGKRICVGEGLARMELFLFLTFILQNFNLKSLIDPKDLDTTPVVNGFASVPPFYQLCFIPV
Chain of UniProt Q9R1A7 (Q9R1A7 whole entry, looked up): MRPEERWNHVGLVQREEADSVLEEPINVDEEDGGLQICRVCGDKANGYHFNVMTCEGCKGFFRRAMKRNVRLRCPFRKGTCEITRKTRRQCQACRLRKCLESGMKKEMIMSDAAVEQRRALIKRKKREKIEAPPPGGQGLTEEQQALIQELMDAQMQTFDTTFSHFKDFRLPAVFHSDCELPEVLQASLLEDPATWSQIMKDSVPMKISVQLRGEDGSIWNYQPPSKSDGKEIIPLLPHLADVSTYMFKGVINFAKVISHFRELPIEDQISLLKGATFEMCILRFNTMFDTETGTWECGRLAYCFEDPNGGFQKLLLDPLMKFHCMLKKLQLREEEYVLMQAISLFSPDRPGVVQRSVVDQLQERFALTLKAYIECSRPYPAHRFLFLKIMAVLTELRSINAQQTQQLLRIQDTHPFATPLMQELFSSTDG

SMILES: Oc1ccc(C2(c3ccc(O)cc3)CC3CC2C2CCCC32)cc1 (stereo not given)
- Potency [1]: inconclusive: 65.9 µM [activator]
- Potency [2]: active: 52.3 µM
- Potency [3]: inconclusive: 20.8 µM [activator, partial curve]

SMILES: CCCCCCCCCC[N+](C)(CCCCCCCCCC)CCC[Si](OC)(OC)OC
- Potency [1]: inconclusive: 77 µM [activator, partial curve, poor fit]
- Potency [4]: inconclusive: 68.6 µM [activator, partial curve, poor fit]
- Potency [2]: active: 61.1 µM

SMILES: C/C=C/C(=O)Oc1c(CCCCCC(C)C)cc([N+](=O)[O-])cc1[N+](=O)[O-]
- Potency [1]: inconclusive: 68.6 µM [activator, single point]
- Potency [4]: active: 48.6 µM

SMILES: CC(C)(C)c1ccc(C(O)CCCN2CCC(C(O)(c3ccccc3)c3ccccc3)CC2)cc1 (stereo not given)
- Potency [1]: active: 11.9 µM
- Potency [4]: inconclusive: 13.3 µM [activator, single point]
- Potency [2]: inconclusive: 10.6 µM [cytotoxic, partial curve]

SMILES: Cc1c(C)c2c(c(C)c1O)CCC(C)(COc1ccc(CC3SC(=O)NC3=O)cc1)O2 (stereo not given)
- Potency [5]: inconclusive: 68.6 µM [cytotoxic, single point] and inconclusive: 33.5 µM [cytotoxic, single point]

SMILES: CN(C)CCOc1ccc(/C(=C(/CCCl)c2ccccc2)c2ccccc2)cc1
- Potency [1]: active: 57.2 µM
- Potency [6]: active: 52.8 µM

SMILES: COc1ccccc1OCCNCC(O)COc1cccc2[nH]c3ccccc3c12 (stereo not given)
- Potency [1]: inconclusive: 33.5 µM [activator, single point]
- Potency [2]: inconclusive: 33.5 µM [cytotoxic, single point]
- Potency [3]: active: 8.41 µM

SMILES: CN(C)c1ccc(C(=C2C=CC(=[N+](C)C)C=C2)c2ccccc2)cc1
- Potency [1]: active: 5.96 µM [middle of 4 runs]
- Potency [4]: inconclusive: 5.31 µM [activator, partial curve] [middle of 4 runs]
- Potency [2]: active: 19.3 µM and active: 13.3 µM and active: 23.7 µM
- Potency [3]: inconclusive: 2.66 µM [activator]
- Potency [7]: inconclusive: 31.6 µM [activator, single point]
- Potency [8]: active: 7.97 µM and active: 13.8 µM and active: 15.5 µM

SMILES: CC(C)=CCNc1ncnc2c1ncn2[C@@H]1O[C@H](CO)[C@@H](O)[C@H]1O
- Potency [1]: inconclusive: 16.8 µM [activator, partial curve]
- Potency [6]: inactive

SMILES: C=C1C(CCl)(CCl)C2(Cl)C(Cl)C(Cl)C1(Cl)C2(Cl)Cl (stereo not given)
- Potency [1]: inconclusive: 67.8 µM [activator, single point]
- Potency [4]: active: 48 µM
- Potency [2]: inconclusive: 67.8 µM [cytotoxic, single point]
- Potency [9]: active: 11.2 µM
- Potency [8]: active: 44.3 µM

SMILES: CCCCCCCOC(=O)c1ccc(O)cc1
- Potency [1]: inconclusive: 68.7 µM [activator, single point] and inconclusive: 68.6 µM [activator, single point]
- Potency [3]: inconclusive: 61.2 µM [activator, partial curve, poor fit]
- Potency [8]: inconclusive: 71 µM [inhibitor, partial curve]

SMILES: COc1ccc(CCN2CCC(Nc3nc4ccccc4n3Cc3ccc(F)cc3)CC2)cc1
- Potency [5]: active: 7.86 µM and active: 23.7 µM
- Potency [4]: active: 11.1 µM and inconclusive: 33.5 µM [activator, single point]

SMILES: NCc1cccc(C2CCN(C(=O)c3ccc(C#Cc4ccccc4F)o3)CC2)c1
- Potency [5]: inconclusive: 68.6 µM [cytotoxic]
- Potency [4]: inconclusive: 77 µM [activator, single point]
- Potency [2]: inconclusive: 68.6 µM [cytotoxic]

SMILES: O=C(c1ccc(OCCN2CCCCC2)cc1)c1c(-c2ccc(O)cc2)sc2cc(O)ccc12
- Potency [5]: active: 54.5 µM and active: 61.1 µM and active: 26.6 µM
- Potency [4]: inconclusive: 77 µM [activator, partial curve, poor fit]
- Potency [2]: inconclusive: 21.1 µM [cytotoxic, partial curve]

SMILES: O=C1c2ccccc2C(=O)N1SC1CCCCC1
- Potency [5]: active: 54.4 µM and active: 43.3 µM
- Potency [4]: inconclusive: 24.3 µM [activator, single point]
- Potency [2]: inactive
- Potency [3]: inconclusive: 68.5 µM [activator, partial curve, poor fit]
- Potency [8]: inconclusive: 12.6 µM [inhibitor, full curve] and inconclusive: 8.94 µM [inhibitor, full curve]

SMILES: C=CCCCCCCC=C
- Potency [5]: inactive

SMILES: Nc1ccc(Nc2ccccc2)cc1
- Potency [5]: active: 53.9 µM and active: 43.3 µM and active: 48.6 µM

SMILES: Cc1c2ccccc2c(C)c2c1ccc1ccccc12
- Potency [5]: inconclusive: 42.8 µM [cytotoxic, partial curve] and active: 61.1 µM
- Potency [4]: inconclusive: 67.9 µM [activator, single point]
- Potency [2]: active: 61.1 µM

SMILES: CCC(C)(C)c1cc(O)c(C(C)(C)CC)cc1O
- Potency [5]: inconclusive: 68.6 µM [cytotoxic, single point]
- Potency [2]: inconclusive: 77 µM [cytotoxic, single point]

SMILES: C[C@]12CC[C@@H]3c4ccc(O)cc4CC[C@H]3[C@@H]1CC[C@@H]2OC(=O)CCC1CCCC1
- Potency [5]: active: 54.5 µM and active: 29.8 µM
- Potency [4]: active: 43.3 µM and inconclusive: 33.5 µM [activator, single point]
- Potency [2]: inconclusive: 68.6 µM [cytotoxic, single point]
- Potency [10]: inconclusive: 11.2 µM [activator, single point] and inconclusive: 28.2 µM [activator, single point]
- Potency [6]: inconclusive: 17.4 µM [inhibitor, single point]

SMILES: CCCCCCCCCCCCCCNCCO
- Potency [5]: inconclusive: 23.7 µM [cytotoxic, partial curve]

SMILES: CCOc1ccc([N+](=O)[O-])cc1
- Potency [5]: inconclusive: 69.6 µM [cytotoxic, single point]
- Potency [2]: inconclusive: 78.1 µM [cytotoxic, single point]

SMILES: C[C@H]1O[C@@H](O[C@H]2[C@@H](O)C[C@H](O[C@H]3[C@@H](O)C[C@H](O[C@H]4CC[C@@]5(C)[C@H](CC[C@@H]6[C@@H]5C[C@@H](O)[C@]5(C)[C@@H](C7=CC(=O)OC7)CC[C@]65O)C4)O[C@@H]3C)O[C@@H]2C)C[C@H](O)[C@@H]1O
- Potency [5]: inconclusive: 68.7 µM [cytotoxic, single point]
- Potency [2]: inactive

SMILES: CC1=C(/C=C/C(C)=C/C=C/C(C)=C\C(=O)O)C(C)(C)CCC1
- Potency [5]: inconclusive: 68.8 µM [cytotoxic, single point]
- Potency [4]: inconclusive: 68.8 µM [activator]
- Potency [8]: inconclusive: 71.2 µM [inhibitor, partial curve]

SMILES: Cc1cc(Nc2ccc(O)cc2)ccc1N
- Potency [5]: active: 27.2 µM
- Potency [4]: active: 21.6 µM
- Potency [8]: active: 39.8 µM

SMILES: BrC1CCC(Br)C(Br)CCC(Br)C(Br)CCC1Br (stereo not given)
- Potency [5]: inconclusive: 58 µM [cytotoxic, single point]
- Potency [4]: active: 60.9 µM and inconclusive: 58 µM [activator, single point]
- Potency [2]: inconclusive: 65.1 µM [cytotoxic, single point]
- Potency [8]: inconclusive: 30.1 µM [inhibitor, partial curve]

SMILES: O=C1CCC/C=C\CCCCCCCCCC1
- Potency [5]: inactive
- Potency [2]: inconclusive: 30.6 µM [rising, single point]

SMILES: S=C(NC1CCCCC1)NC1CCCCC1
- Potency [5]: active: 60 µM and active: 43.3 µM

SMILES: CCN(CC)CCOc1ccc(/C(=C(\Cl)c2ccccc2)c2ccccc2)cc1
- Potency [5]: inconclusive: 33.5 µM [cytotoxic, single point]
- Potency [4]: inconclusive: 55.6 µM [activator, single point] and inconclusive: 33.5 µM [activator, single point]
- Potency [2]: inconclusive: 33.5 µM [cytotoxic, single point]

SMILES: Cc1cc(O)c2ccccc2c1O
- Potency [5]: active: 10.6 µM

SMILES: CN(C)CCCN1c2ccccc2Sc2ccc(Cl)cc21
- Potency [5]: active: 54.5 µM and active: 29.8 µM
- Potency [4]: inconclusive: 68.6 µM [activator, single point] and inconclusive: 33.5 µM [activator, single point]

SMILES: COc1ccc(-n2nc(CCC(=O)N(C)O)cc2-c2ccc(Cl)cc2)cc1
- Potency [5]: inconclusive: 33.5 µM [cytotoxic, single point]

SMILES: O=C(Nc1ccccc1SSc1ccccc1NC(=O)c1ccccc1)c1ccccc1
- Potency [5]: active: 24.5 µM and active: 27.3 µM
- Potency [2]: inconclusive: 61.4 µM [cytotoxic, single point] and inconclusive: 19.3 µM [cytotoxic, full curve]

SMILES: O=C(Nc1ccccc1)c1cc(Cl)ccc1O
- Potency [5]: active: 17.2 µM

SMILES: CN(C)c1ccc(SC#N)cc1
- Potency [5]: inconclusive: 77 µM [cytotoxic, single point]

SMILES: O=C(Nc1ccc(Cl)cc1)Nc1ccc(Cl)c(C(F)(F)F)c1
- Potency [5]: active: 11.9 µM
- Potency [4]: inconclusive: 33.5 µM [activator, single point]
- Potency [8]: inconclusive: 34.7 µM [inhibitor, partial curve]
